Measurements published in PMC11834968 (RSC Chemical Biology, 2025).

Target: the molecule itself
Test: mass photometry

B1: Human recombinant fibroblast activation protein alpha (enzyme)
chain: not shown
modifications: glycosylated (sites not given)
  stoichiometry N: 2
